Reference: PubChem BioAssay (NCI)
Values joined by “and” are separate entries in the source; they are usually repeats but may differ in a detail not shown here. Equal entries are not always repeated.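 48-hour exposure; five concentrations; linearly interpolated endpoints. GI50 marks 50% less growth. TGI: concentration producing complete growth inhibition.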

Tested on: NCI-H322M lung
Experiment: NCI anticancer screen, dose series, 48 h

Row | SMILES | TGI [µM] | GI50
1 | COc1ccc(-c2cc(=O)c3cc(OC)ccc3[nH]2)cc1 | > 100 | 
2 | CN1C(=O)C2C3C=C4c5ccccc5N(c5ccccc5)C4(C2C1=O)[C@H]1C(=O)N(C)C(=O)[C@@H]31 (stereo partly specified) | > 100 | 
3 | COc1ccc(C2SCC(=O)N2NC(=O)c2ccc(NC(C)=O)cc2)c(OC)c1 (stereo unspecified) | > 100 | 
4 | CC(C)=CC(Cc1ccccc1)S(=O)(=O)c1nc2ccccc2s1 (stereo unspecified) | 40.4 | 
5 | CC(C)C(=O)Nc1cc(C(F)(F)F)ccc1[N+](=O)[O-] | > 100 | 
6 | CCOC(=O)c1cc2c(cc1Cl)SC(N(c1ccc(OC)cc1)S(=O)(=O)c1ccc(Cl)cc1)=NS2(=O)=O | > 100 | > 100 µM
7 | O=C(Nc1ccc2[nH]c(C(=O)N3CC(CCl)c4c3cc([N+](=O)[O-])c3ccccc43)cc2c1)Nc1ccc2[nH]c(C(=O)N3CC(CCl)c4c3cc([N+](=O)[O-])c3ccccc43)cc2c1 (stereo unspecified) | > 100 | 
8 | CCOC(=O)C(Cc1ccc(OC(=O)c2ccc(OC)cc2)cc1)NC(=O)C(F)(F)F (stereo unspecified) | > 100 | 
9 | COc1cccc(NC(=O)c2sc3nc(C)c(C(O)c4ccccc4)cc3c2N)c1 (stereo unspecified) | 22.2 | 0.763 µM
10 | Cn1c(=O)c2c(nc3n2CCCC(=O)N3CC(O)CCl)n(C)c1=O (stereo unspecified) | > 100 | 
11 | Nc1nc2ncc(CNc3ccc(C(=O)NC(CCC(=O)O)C(=O)O)cc3)nc2c(=O)[nH]1 (stereo unspecified) | > 100 | 
12 | CCC(=O)Nc1ccc(NC(C#N)c2cccc(Oc3ccccc3)c2)cc1 (stereo unspecified) | > 100 | 
13 | Cc1cccc(C)c1NC(=O)C1C(=O)N(c2c(C)cccc2C)C(=O)/C1=N\N (stereo unspecified) | > 100 | 
14 | O=C(c1ccccc1)C1OC1c1ccc([N+](=O)[O-])cc1 (stereo unspecified) | 57.1 | 8.24 µM
15 | [N-]=[N+]=NCCCCCC(=O)OC(C(=O)c1ccccc1)c1cccc(OCC(=O)NCCOCCOCCNC(=O)CCCC[C@@H]2SC[C@@H]3NC(=O)N[C@@H]32)c1 (stereo partly specified) | > 100 | > 100 µM
16 | O=C1C2=C(CC3=C(C2)CS(=O)(=O)C3)C(=O)C2=C1CC1=C(C2)CS(=O)(=O)C1 | > 67.9 | 
17 | c1ccc(CN2COc3c(ccc4c3OCN(Cc3ccccc3)C4)C2)cc1 | > 100 | 0.562 µM
18 | Cc1nnc(-c2cccc(-c3ccc(C(=O)NCC4CC4)cc3)c2)o1 | > 25 | > 25 µM
19 | C#Cc1c(/C=C/C(=O)OCC)ccc2ccccc12 | > 100 | 61.7 µM

Row | SMILES | TGI [µM] | GI50
20 | COC(=O)c1cc(O)c2cc3c(cc2c1-c1cc(OC)c(OC)c(OC)c1)OCO3 | > 100 | 4.34 µM
21 | C=C(CCC/C(C)=C/C=C/[C@@H](C)CCCc1ccoc1)C[C@@H]1OC(=O)[C@H](C)[C@@H]1O | 14.2 | 
22 | C=C1CCC2C3(C)COC(c4ccccc4)OC3CCC2(C)C1/C=C/C1=CCOC1=O (stereo unspecified) | 40 | 11.8 µM
23 | CCN(CC)CC(O)CNc1c2ccc([N+](=O)[O-])cc2nc2cc(OC)c(OC)cc12 (stereo unspecified) | 0.801 | 0.249 µM
24 | COC(=O)c1ccc(N=NN(C)COc2ccc(Br)cc2)cc1 | > 100 | 
25 | N#CC(Cc1ccccc1)N(CCC1=CCCCC1)Cc1ccccc1 (stereo unspecified) | > 100 | 
26 | Nc1nc2c(ncn2C2C=CC(CO)C2)c(=O)[nH]1 (stereo unspecified) | > 100 | 
27 | O=C(O)CCSCc1ccccc1 | > 100 | 
28 | COc1cc(NCCC2CCCCN2)c2ncccc2c1 (stereo unspecified) | > 100 | 
29 | COC(=O)C(Cc1c[nH]c2ccccc12)NC(=O)c1ccc(-c2ccc(Cl)cc2Cl)o1 (stereo unspecified) | > 100 | 
30 | O=C(O)C1(C(=O)O)CCC1.[NH2-].[NH2-].[Pt+2] | > 250 | 204 µM and > 250 µM
31 | COc1ccc(N2C(=O)C3c4[nH]c5ccc(Br)cc5c4C4CCC(C(C)(C)C)CC4C3C2=O)cc1 (stereo unspecified) | > 100 | 
32 | C[C@]12CC/C(=N\O)C=C1CC[C@@H]1C2CC[C@@]2(C)C1CC[C@@H]2OC1CCCCO1 (stereo partly specified) | > 100 | 
33 | COc1ccc2c(=O)cc(C(Cl)(Cl)Cl)oc2c1 | 28.7 | 7.38 µM
34 | COC(=O)C1(C#N)C(C)(C)N=C(c2ccccc2)C12CCCCC2 (stereo unspecified) | > 100 | 
35 | NCCOCCOCCNc1nc(-c2ccccc2)nc(N2CCN(c3ccccn3)CC2)n1 | 30.5 | 16.4 µM
36 | C#CCSc1cc(Cl)c(C)cc1S(=O)(=O)Nc1nc2ccccc2o1 | 79.3 | 28.3 µM
37 | CCCCCCCCCCCCCCCCCCNC(=S)/N=C\C1=C(O)c2ccccc2C1=O | 21.4 | 
